Experimental data published in patent US7906498B2, “Cholesterol as an antibiotic for Streptococcus pneumoniae” (priority 2005, dated 2011).

Experiments:
[1] = Test whether cholesterol independently causes inflammation in rabbit corneas (topical drops or intrastromal injection); type: in vivo; details: two rabbit corneas, topical drops of 1% cholesterol in 20% glycerol over 10 hours; examined for several days
Description: The applications were 30 minutes apart for the first hour, and the remaining applications were 1 hour apart. The corneas were examined periodically for several days. […] The possible effect of cholesterol injected into the corneal stroma was also examined. […] The corneas were examined every 2 hours for the first 8 hours, and then at 24, 30, and 48 hours post-injection.

[2] = system: encapsulated S. pneumoniae; test: Rabbit S. pneumoniae keratitis, slit lamp examination (SLE) score; details: topical 1% cholesterol in 20% glycerol at 20 and 24 hr post-infection, 48 hours post-infection

## CC(C)CCC[C@@H](C)[C@H]1CC[C@H]2[C@@H]3CC=C4C[C@@H](O)CC[C@]4(C)[C@H]3CC[C@]12C [cholesterol]
[1]
  inflammation or adverse effect after topical drops: No inflammation or adverse effect of any kind was observed
[2]
  reduction in corneal damage compared to untreated corneas (SLE score): 35%
